# Where “and” joins values, the source holds several entries; their conditions need not be identical. Identical values can stand only once. The campaign covered roughly 150,000 compounds. About 6,500 (4.3%) were called active. The shares of active, inactive and inconclusive entries below differ from those in the screen. The call rests on the fitted dose curve; in most records, active means well fitted inhibition curve with a large enough effect (not every such curve was filed as active); inconclusive means small, poorly fitted or top-dose-only effect, or another doubt; inactive means no such curve, though single readings can be large or run the other way. No potency is given beside an inconclusive call; the fits are too rough. Some compounds were tested as several samples or in several runs, with calls that do not always agree.
# Biological target: 15-hydroxyprostaglandin dehydrogenase [NAD(+)] (Homo sapiens) (UniProt P15428)
# Assay: qHTS Assay for Inhibitors of HPGD (15-Hydroxyprostaglandin Dehydrogenase)
# Conditions: purified HPGD, NADH fluorescence kinetic, PGE2 substrate; activity change, negative = inhibition: hits give low values
# Summary of the method: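 NADH formation kinetics: reaction with 30 uM PGE2 and 1 mM NAD+ (final), 20 nM enzyme, Tris-HCl pH 8 with Tween 20, after 15 min compound preincubation at room temperature. Fluorescence change, last versus first of five reads.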
# On the % scale 0 is the no-effect control and ±100 the full control effect; potency means the concentration at half of the fitted maximal effect; tags describe the fitted curve by direction and shape.
# Sequence of UniProt P15428 (P15428 whole entry, looked up): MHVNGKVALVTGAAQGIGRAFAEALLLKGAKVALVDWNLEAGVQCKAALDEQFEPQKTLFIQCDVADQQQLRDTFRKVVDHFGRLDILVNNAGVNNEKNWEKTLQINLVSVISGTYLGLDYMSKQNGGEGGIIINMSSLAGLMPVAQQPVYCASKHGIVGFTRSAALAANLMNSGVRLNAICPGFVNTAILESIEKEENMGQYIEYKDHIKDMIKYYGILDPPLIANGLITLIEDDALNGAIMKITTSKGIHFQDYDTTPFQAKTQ
SMILES,Potency,"activity change, negative = inhibition"
COCCn1c(SCc2ccccc2Cl)nc2c1c(=O)[nH]c(=O)n2C,"inconclusive [inhibitor, single point]",
c1ccc(-c2ccccc2)cc1,,inactive: -12.9%
CC1CCC(C(C)C)C(OC(=O)COC(=O)c2ccccc2N)C1 (stereo not given),"inconclusive [inhibitor, partial curve]",
CC(=O)c1ccc2c(c1)C1C(Cl)C(Sc3ccccc3[N+](=O)[O-])CC1C(C(=O)O)N2 (stereo not given),"inconclusive [inhibitor, partial curve]",
CCOc1cccc(OCC)c2c(C)[n+](CC3CCCO3)c(C)c1-2 (stereo not given),,inactive: -17.6%
O=S1OCC2C(CO1)C1(Cl)C(Cl)=C(Cl)C2(Cl)C1(Cl)Cl (stereo not given),,inactive: -2.4% and inactive: -4.21%
N#Cc1c(Cl)c(Cl)c(Cl)c(C#N)c1Cl,active: 2.51 µM,
CCOCCCN=Cc1c(O)n(Cc2ccccc2)c(=O)[nH]c1=O,"inconclusive [inhibitor, single point]",
N=C1c2ccccc2CN1NC(=O)c1ccc(Br)cc1,"inconclusive [inhibitor, partial curve]",
COC(=O)C1=Nc2ccccc2/C1=C\c1c(O)n(-c2ccc(Br)cc2)c(=O)[nH]c1=O,active: 17.8 µM,
Cc1ccnc(-n2c(C)cc(C=C3C(=O)N(C)C(=S)N(C)C3=O)c2C)c1,active: 31.6 µM,
CNc1ccc2oc(C[C@H]3O[C@]4(CC[C@H]3C)O[C@H]([C@H](C)C(=O)c3ccc[nH]3)[C@H](C)C[C@H]4C)nc2c1C(=O)O,"inconclusive [inhibitor, partial curve]",
Cn1c(O)c(C=Nc2ccc3c(c2)CCC3)c(=O)n(C)c1=O,"inconclusive [inhibitor, single point]",
O=C(O)c1ccccc1Nc1cccc(C(F)(F)F)c1,active: 28.2 µM,
CC[N+](C)(CC)CCC[n+]1c(-c2ccccc2)c2cc(N)ccc2c2ccc(N)cc21,"inconclusive [inhibitor, single point]",
O=C1CN=C(c2cccs2)c2c(sc3c2CCCC3)N1,"inconclusive [inhibitor, single point]",
COc1cccc2c1C(=O)c1c(O)c3c(c(O)c1C2=O)C[C@](O)(/C(C)=N\O)C[C@@H]3O[C@H]1C[C@H](N)[C@@H](O)[C@H](C)O1,,inactive: -6.71%
CC(C)CCNC(=O)c1c(N)n(Cc2ccc3c(c2)OCO3)c2nc3ccccc3nc12,"inconclusive [inhibitor, partial curve]",
CCCCCc1nc2ccccc2c(=O)n1-c1ccccc1[N+](=O)[O-],,inactive: -9.53%
COc1cc2c(cc1O)C[C@H]1c3c(cc(OC)c(O)c3-2)CCN1C,"inconclusive [inhibitor, partial curve]",
CN[C@H]1C[C@H]2O[C@@](C)([C@H]1OC)n1c3ccccc3c3c4c(c5c6ccccc6n2c5c31)C(=O)NC4,"inconclusive [inhibitor, partial curve]",
CC(C)=CCCC1(C)C=Cc2c(O)c3c(c(CC=C(C)C)c2O1)OC12C(=CC4CC1C(C)(C)OC2(C/C=C(/C)C(=O)O)C4=O)C3=O (stereo not given),"inconclusive [inhibitor, single point]",
CCCc1cc2c(n1Cc1ccco1)C(C)C1CN(C(=O)c3ccccc3)C(C)(C(=O)OC)C21 (stereo not given),"inconclusive [inhibitor, partial curve]",
CC1CCC(C(C)C)C(OC(=O)c2ccccc2N)C1 (stereo not given),"inconclusive [inhibitor, single point]",

SMILES,Potency,"activity change, negative = inhibition"
CC(C)n1c(=O)c(C=Nc2ccc(Br)cc2)c(O)n(Cc2ccco2)c1=O,"inconclusive [inhibitor, partial curve]",
CCCCN1C(=O)NC(=O)C2(Cc3c(nc4ccccn4c3=O)N3CCc4ccccc4C32)C1=O (stereo not given),"inconclusive [inhibitor, single point]",
O=c1c2ccccc2[se]n1-c1ccccc1,active: 355 nM and active: 708 nM and active: 631 nM,
CCN(CC)CCN=Cc1c(O)n(Cc2ccccc2)c(=O)[nH]c1=O,active: 35.5 µM,
CS/C(N)=C(C#N)/C(C#N)=C(\N)SC,"inconclusive [inhibitor, partial curve]",
CN1CC[C@@H]2CN3CCc4cccc(c43)[C@H]2C1,"inconclusive [inhibitor, partial curve]",
O=C(Oc1ccccc1)N1CCC[C@@]2(CCN(Cc3ccccc3)C2)C1,,inactive: -7.33%
O=C(O)CP(=O)(O)c1ccc(Cl)cc1,,inactive: -1.15%
COc1ccc(-c2noc(CN3C(=O)c4ccccc4C3=O)n2)cc1,active: 20 µM,
CCN(CC)CCNCc1nc2ccccc2c(=O)n1-c1ccc(F)cc1,,inactive: -5.3%
Cc1ccc(S(=O)(=O)N2CCC(C(=O)N3CCC4(CC3)OCCO4)CC2)cc1,,inactive: -10.3%
CCN1CCN(C(=O)COc2ccc3c(c2)C(=O)CC2(CCN(C(C)=O)CC2)O3)CC1,"inconclusive [inhibitor, partial curve]",
O=C1C=CC[C@@H]2[C@H]3CCCN4CCC[C@@H](CN12)[C@@H]34,,inactive: -4.02%
Oc1c(Br)c(Br)c(Br)c(Br)c1Br,active: 10 µM,
CN[C@@H](C)[C@H](O)c1ccccc1,active: 0.794 µM,
Cc1nc2cc(C(=O)N3CCC4(CC3)OCCO4)ccc2n1-c1ccc(Br)cc1,active: 8.91 µM,
CCCCCCn1c(O)c(C=NCCN2CCCCC2)c(=O)[nH]c1=O,,inactive: -8.17%
C[C@H]1C2C=C[C@H]1[C@@H](C(=O)O)[C@@H]2c1c2ccc(=O)c(O)c-2oc2c(O)c(O)ccc12,active: 3.55 µM,
CCCc1[nH][nH]c(=O)c1C(c1ccc(Cl)cc1)C(C#N)C#N (stereo not given),active: 15.8 µM,
Cc1ccc(C(=O)NC(O)C(Cl)(Cl)Cl)cc1 (stereo not given),active: 14.1 µM,
C[C@H]1CC[C@@H]2[C@@H](C)C(=O)O[C@H]3O[C@@]4(C)CC[C@H]1[C@@]32OO4,,inactive: -8.87%
Nc1cc(Cl)c2nonc2c1[N+](=O)[O-],"inconclusive [inhibitor, partial curve]",
c1ccc(CCN2CCOCC2)nc1,,inactive: -2.25%
COCCCOc1ccnc(CS(=O)c2nc3ccccc3[nH]2)c1C (stereo not given),"inconclusive [inhibitor, partial curve]",

SMILES,Potency,"activity change, negative = inhibition"
CCOC(=O)c1c(C)n(Cc2ccc3c(c2)OCO3)c2ccc(O)cc12,"inconclusive [inhibitor, single point]",
C[C@@H]1[C@@H](C)N1C[C@H](O)Cn1ccnc1[N+](=O)[O-] (stereo not given in full),,inactive: -12.7%
CC(C)OC(=O)c1c(N)n(CC2CCCO2)c2nc3ccccc3nc12 (stereo not given),"inconclusive [inhibitor, partial curve]",
Nc1c(C(=O)NCc2ccco2)c2nc3ccccc3nc2n1CCN1CCCCC1,"inconclusive [inhibitor, partial curve]",
Cc1ccc(S(=O)(=O)CC(C)(O)C(=O)Nc2cccc(C(F)(F)F)c2)cc1 (stereo not given),,inactive: -3.26%
Cc1cc(N(CCCl)CCCl)ccc1/C=N/NC(=O)c1ccco1,"inconclusive [inhibitor, partial curve]",
COC(=O)C1=CO[C@@H](C)[C@@H]2CN3CCc4c([nH]c5cc(OC)ccc45)[C@@H]3C[C@H]12,,inactive: -19.7%
Cc1nn(CCc2n[nH]c(=S)n2-c2cccc(Cl)c2)c(C)c1[N+](=O)[O-],"inconclusive [inhibitor, partial curve]",
CC(O)(CS(=O)(=O)c1ccccc1)C(=O)Nc1cccc(C(F)(F)F)c1 (stereo not given),active: 0.0018 µM,
CCOC(=O)c1ccc(N2C(=O)CC(N3CCC(O)(c4ccc(Br)cc4)CC3)C2=O)cc1 (stereo not given),"inconclusive [inhibitor, partial curve]",
Nc1ncnc2c1ncn2[C@@H]1O[C@H](COP(=O)(O)OP(=O)(O)OP(=O)(O)O)[C@H]2OC3(O[C@H]21)C([N+](=O)[O-])=CC(=[N+]([O-])[O-])C=C3[N+](=O)[O-] (stereo not given in full),"inconclusive [inhibitor, partial curve, poor fit]",
CCCCC/C=C\C/C=C\C/C=C\C/C=C\CCCC(=O)N[C@H](C)CO,,inactive: -5.8% and inactive: -1.25%
Oc1cc2c(cc1O)[C@H]1c3ccccc3CN[C@H]1CC2,active: 8.91 µM,
CCCCC/C=C\C/C=C\C/C=C\C/C=C\CCCC(=O)NCCCl,"inconclusive [inhibitor, single point]",
COc1cc2[nH]c(=O)n(-c3ccccc3)c(=O)c2cc1OC,"inconclusive [inhibitor, partial curve]",
O[N+]1=CC=CCC1=S.On1ccccc1=S.[Zn],"inconclusive [inhibitor, single point]",
Cc1ccccc1CN1CCN(c2ccc(Cl)cc2)CC1,,inactive: -4.38%
COc1cc2ccccc2c2cc([N+](=O)[O-])oc12,,inactive: -8.91%
O/N=C/c1c[nH]c2ccccc12,active: 7.08 µM,
C=CCN1C(=O)/C(=C/c2ccc3c(c2)CCCN3CCC)C(=O)NC1=S,active: 14.1 µM,
Oc1ccc(/C=N/NP(=S)(c2ccccc2)c2ccccc2)cc1,active: 31.6 µM,
S=C=NCc1ccccc1,"inconclusive [inhibitor, single point]",
